The text below walks through data of the supplement of paper PMC8728848.

Holding throughout (experiment): glycan array binding signal (z-score within array); higher = stronger binding
Holding throughout (conditions): glycan notation: IUPAC condensed, linker removed

Test [1] deals with Gal(b1-4)GlcNAc(b1-3)[Gal(b1-4)GlcNAc(b1-6)]GalNAc. Summed up:
(§1)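 The binding signal is a Z-score computed within each array. Data were drawn from 3228 arrays in the Consortium for Functional Glycomics database, restricted to those with a known protein sequence. Scores were averaged over arrays of the same protein sequence at different concentrations or buffers, and over linkers, and negative values can be taken as non-binding.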

For test [2], the target named is Gal(b1-4)GlcNAc(b1-3)[GlcNAc(b1-6)]Gal(b1-4)GlcNAc. Summed up: as §1
In test [3] the target is Gal(b1-4)GlcNAc(b1-6)Gal(b1-4)GlcNAc. Summed up:
as §1

Test [4] concerns the target Gal(b1-4)GlcNAc(b1-6)GalNAc. Summed up: as §1
Test [5] concerns the target Gal(b1-4)GlcNAc(b1-6)[Gal(b1-3)]GalNAc. Summed up: as §1
For test [6], the target named is Gal(b1-4)GlcNAc(b1-6)[Gal(b1-3)]GlcNAc. Summed up:
as §1

The target of test [7] is Gal(b1-4)GlcNAc(b1-6)[Gal(b1-4)GlcNAc(b1-3)]GalNAc. A digest of the protocol: as §1
A further test addresses Gal(b1-4)GlcNAc6P. Summed up: as §1
In the next test the target is Gal(b1-6)Gal. A digest of the protocol: as §1
Another test has as its target Gal3S(b1-3)GalNAc. A digest of the protocol:
as §1

The next test deals with Gal3S(b1-3)GlcNAc. A digest of the protocol:
as §1

In test [8] the target is Gal3S(b1-3)[Fuc(a1-4)]GlcNAc. A digest of the protocol: as §1
Another test concerns the target Gal3S(b1-4)Glc. Summed up: as §1
In a further test the target is Gal3S(b1-4)Glc6S. A digest of the protocol:
as §1

The target in another test is Gal3S(b1-4)GlcNAc. A digest of the protocol:
as §1

A further test concerns the target Gal3S(b1-4)GlcNAc6S. Summed up: as §1
The target in test [9] is Gal3S(b1-4)[Fuc(a1-3)]Glc. Summed up:
as §1

Test [10] deals with Gal3S(b1-4)[Fuc(a1-3)]Glc6S. Summed up: as §1
For test [11], the target named is Gal3S(b1-4)[Fuc(a1-3)]GlcNAc. Summed up: as §1
For test [12], the target named is Gal3S(b1-4)[Fuc(a1-3)]GlcNAc6S. A digest of the protocol: as §1
The target of another test is Gal3S4S(b1-4)GlcNAc. Summed up:
as §1

The target in another test is Gal3S6S(b1-4)GlcNAc. A digest of the protocol:
as §1

A further test has as its target Gal3S6S(b1-4)GlcNAc6S. A digest of the protocol:
as §1

The other results are listed elsewhere or left out.

B1: Nictaba (Nicotiana tabacum), Q94EW1 (protein)
chain: MQGQWIAARDLSITWVDNPQYWTWKTVDPNIEVAELRRVAWLDIYGKIETKNLIRKTSYAVYLVFKLTDNPRELERATASLRFVNEVAEGAGIEGTTVFISKKKKLPGELGRFPHLRSDGWLEIKLGEFFNNLGEDGEVEMRLMEINDKTWKSGIIVKGFDIRPN
For the molecule B1, the “glycan array binding signal (z-score)” value in test [1] is -0.269; in [2], -0.34; in test [3], -0.29; in test [4], -0.327; in test [5], -0.301; in [6], -0.427. The “glycan array binding signal (z-score)” value in [7] is -0.385; in the test with Gal(b1-4)GlcNAc6P, -0.387; with Gal(b1-6)Gal, -0.269; with Gal3S(b1-3)GalNAc, -0.278; with Gal3S(b1-3)GlcNAc, -0.337; in test [8], -0.334. In addition, the “glycan array binding signal (z-score)” value with Gal3S(b1-4)Glc is -0.263; with Gal3S(b1-4)Glc6S, -0.242; with Gal3S(b1-4)GlcNAc, -0.204; with Gal3S(b1-4)GlcNAc6S it was -0.163; in [9], -0.278; in [10], -0.24. The “glycan array binding signal (z-score)” value in test [11] is -0.386; in test [12] it was -0.385; with Gal3S4S(b1-4)GlcNAc it was -0.289; with Gal3S6S(b1-4)GlcNAc, -0.244; with Gal3S6S(b1-4)GlcNAc6S it was -0.22.
